# Experimental data from paper PMC4336329 (PLoS ONE, 2015).
# Hit rate of the full screen: of about 310,000 compounds, about 14,000 (4.5%) showed an effect of 50% or more. Effects have a minus sign here. The list shows a part of the results.
# Molecular target: human ether-à-go-go-related gene (hERG) potassium channel (human, UniProt Q12809)
# Experiment: primary screen, population patch clamp on CHO cells stably expressing hERG
# 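Note: peak tail current of the secondary pulse compared with the same well before compound.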
# Sequence of human ether-à-go-go-related gene (hERG) potassium channel (Q12809 whole entry, looked up): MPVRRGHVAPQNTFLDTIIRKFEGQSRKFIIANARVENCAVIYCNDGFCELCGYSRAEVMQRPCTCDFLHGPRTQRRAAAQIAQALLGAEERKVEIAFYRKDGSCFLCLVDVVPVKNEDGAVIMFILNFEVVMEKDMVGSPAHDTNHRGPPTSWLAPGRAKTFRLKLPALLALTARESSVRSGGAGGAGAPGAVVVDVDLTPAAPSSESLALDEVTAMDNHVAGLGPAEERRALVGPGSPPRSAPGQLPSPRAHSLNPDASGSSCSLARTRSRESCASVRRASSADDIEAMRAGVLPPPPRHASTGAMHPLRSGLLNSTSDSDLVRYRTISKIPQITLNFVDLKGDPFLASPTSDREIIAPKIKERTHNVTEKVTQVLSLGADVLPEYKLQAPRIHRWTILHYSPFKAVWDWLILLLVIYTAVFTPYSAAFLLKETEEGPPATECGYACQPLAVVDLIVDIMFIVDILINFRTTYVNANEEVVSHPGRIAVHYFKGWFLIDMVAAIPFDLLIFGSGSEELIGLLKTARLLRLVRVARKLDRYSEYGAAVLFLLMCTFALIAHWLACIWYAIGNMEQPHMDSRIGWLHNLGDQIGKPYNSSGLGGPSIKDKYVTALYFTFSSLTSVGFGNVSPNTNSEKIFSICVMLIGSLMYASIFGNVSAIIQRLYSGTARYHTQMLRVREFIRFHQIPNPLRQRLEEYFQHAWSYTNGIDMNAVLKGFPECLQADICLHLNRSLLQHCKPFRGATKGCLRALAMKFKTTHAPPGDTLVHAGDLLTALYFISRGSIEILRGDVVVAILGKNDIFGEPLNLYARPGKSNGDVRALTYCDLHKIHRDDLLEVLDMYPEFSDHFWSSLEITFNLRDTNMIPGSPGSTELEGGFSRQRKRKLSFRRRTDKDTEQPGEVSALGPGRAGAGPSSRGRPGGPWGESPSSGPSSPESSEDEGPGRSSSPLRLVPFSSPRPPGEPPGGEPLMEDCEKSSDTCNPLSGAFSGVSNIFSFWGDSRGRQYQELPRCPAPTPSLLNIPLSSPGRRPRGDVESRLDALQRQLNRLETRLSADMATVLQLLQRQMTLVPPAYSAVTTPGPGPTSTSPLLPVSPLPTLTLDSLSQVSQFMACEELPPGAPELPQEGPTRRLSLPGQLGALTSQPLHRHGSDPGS
row,Compound,"hERG current change (%, negative = inhibition) at 10uM"
1,CC1OC(OC2C(CO)OC(OC3C(CO)OC(O)C(O)C3O)C(O)C2O)C(O)C(O)C1N[C@@H]1C=C(CO)[C@@H](O)C(O)[C@H]1O (stereo partly drawn),22.8%
2,COC(=O)c1cc(NS(=O)(=O)c2ccc(F)cc2)ccc1N1CCOCC1,10.2%
3,Cc1nccc(-c2cc(-c3ccc(Cl)cc3Cl)no2)n1,4.77%
4,Cc1cccc(NC(=O)[C@@H]2CCCN2C(=O)OC(C)(C)C)c1,12.3%
5,O=S(=O)(Nc1ccc2c(c1)nc1n2CCOC1)c1ccc(Cl)cc1,-22.7%
6,Cc1cc(C)cc(NC(=O)CSc2nnc(Cc3cccn3C)n2-c2ccc(F)cc2)c1,-3.46%
7,Cc1cc(C)n(-c2ccc(C(=O)Nc3sccc3C(N)=O)cc2)n1,-31.1%
8,O=c1cnnc(SCCc2ccccc2)[nH]1,-5.69%
9,Cc1cc(C(F)F)n2nc(C(=O)Nc3ccc(S(=O)(=O)N4CCCCCC4)cc3)nc2n1,-4.72%
10,COc1ccccc1NC(=O)OC(C)c1ccc(Cl)cc1 (stereo not drawn),-2.08%
11,Cc1ccc(-n2c(C)cc(C(=O)COC(=O)c3c(C)noc3C)c2C)cc1,-13.2%
12,Cc1cccc(NC(=O)C2C3C=CC(O3)C2C(=O)O)c1 (stereo not drawn),10.8%
13,CCN(CC)C(=O)C1=C(C)Nc2ncnn2C1c1cccnc1 (stereo not drawn),-0.306%
14,COc1ccc(C)cc1Nc1nnc(C)c(=O)[nH]1,15.4%
15,O=C(Nc1ccc(S(=O)(=O)Nc2ccccc2F)cc1)N1CCCCC1,4.84%
16,CCc1ccc(NC(=O)Nc2ccon2)cc1,7.75%
17,O=C(NC1CCCCCC1)c1ccc(=O)n(Cc2ccccc2)n1,-7.88%
18,Cc1cccc(C)c1NC(=S)N1CCOCC1,9.99%
19,CSc1ccccc1C(=O)NCCOc1cccc(C)c1,17.7%
20,Fc1cccc(Nc2ncnc3sccc23)c1,12%
21,Cn1c(CCN2CCCCCC2)nc2cc(NC(=O)Nc3ccccc3)ccc21,-35.7%
22,Cc1cc(C)c(C(=O)CN2CCOCC2)c(C)c1.Cl,5.49%
23,NS(=O)(=O)c1ccc(NC(=O)C2C3C=CC(C3)C2C(=O)O)cc1 (stereo not drawn),18.3%

row,Compound,"hERG current change (%, negative = inhibition) at 10uM"
1,O=P(O)(CCc1ccccc1)CN1CCCCC1,10.9%
2,O=C(c1cccc(S(=O)(=O)N2CCCC2)c1)N(Cc1ccco1)C1CCS(=O)(=O)C1 (stereo not drawn),-21.8%
3,COCCN(CCOC)C(=O)c1ccc(NS(=O)(=O)c2ccc3[nH]c(=O)[nH]c3c2)cc1,36.3%
4,CC1COc2ccccc2N1C(=O)c1ccccc1Cl (stereo not drawn),-3.55%
5,CCCCCCC(=O)c1c([O-])n(-c2ccc(OC)cc2)c(=O)[nH]c1=O.C[NH+](C)C,3.22%
6,O=C(CCC(=O)N1CCCCC1)Nc1ccc(Cl)c(Cl)c1,0.606%
7,COc1ccccc1OCc1nc2ccccc2s1,0.459%
8,Cc1cc(NC(=O)C23CCC(C)(C(=O)O2)C3(C)C)no1 (stereo not drawn),12%
9,COc1ccc(-c2csc(N(C)C(=O)c3cccs3)n2)cc1,-0.276%
10,CCN(CC)c1ccc2cc(C(=O)NCc3ccc(F)cc3)c(=N)oc2c1,-23.4%
11,Cc1nnc(SCC(=O)Nc2sc3c(c2C(N)=O)CCC(C)C3)[nH]c1=O (stereo not drawn),4.52%
12,CN(C)C(=O)N1CCC(C(=O)NCc2ccccc2Cl)CC1,-9.13%
13,Cc1nc(Cl)sc1C(=O)O,11.1%
14,CCOc1cc(N2CCOCC2)c(OCC)cc1NC(=O)Cc1ccccc1,-12.6%
15,CC(=O)O[C@H](CC(=O)O)C[N+](C)(C)C.[Cl-],5.92%
16,O=C(c1ccccc1)c1ccc(C(=O)N2CCN(c3ccccc3)CC2)cc1,-36.7%
17,CCOc1ccccc1OCCC(=O)N1CCN(S(=O)(=O)c2ccccc2[N+](=O)[O-])CC1,-34.5%
18,Cc1ccc(-n2c(=O)[nH]c3c(C(N)=O)nc(CC(C)C)nc32)cc1,4.8%
19,Cc1c(Cl)ccc2c(C(=O)O)cc(-c3ccccc3)nc12,-1.96%
20,Cc1ccc2cc(C(c3nnnn3C3CCCC3)N(Cc3ccco3)Cc3cccs3)c(=O)[nH]c2c1 (stereo not drawn),-2.43%
21,COC(=O)Cc1ccc(NC(=S)NCC(C)C)cc1,3.74%
22,COc1ccc(Cl)cc1NC(=S)NNC(=O)C1(C)CC1(Cl)Cl (stereo not drawn),9.7%
23,O=C(N=C1SC2CS(=O)(=O)CC2N1c1ccc(Cl)cc1Cl)C1CC1 (stereo not drawn),-7.48%

row,Compound,"hERG current change (%, negative = inhibition) at 10uM"
1,CC(C)C1Cc2ccccc2-c2[nH]c(=S)[nH]c(=O)c21 (stereo not drawn),13%
2,CCOc1ccc(CN2CCNC(=O)C2CC(=O)NCCC2=CCCCC2)cc1 (stereo not drawn),-49.6%
3,Cc1ccc(Nc2nc(=O)c3cccnc3s2)c(Br)c1,3.27%
4,CC(=O)Nc1ccc(C(=O)NNS(=O)(=O)c2ccc(C)cc2)cc1,21.8%
5,Cc1ccc(CNc2ccc3c(c2)ncn3C(C)(C)C)cc1,-72.5%
6,CCc1cc2ccccc2nc1SCC(=O)NC1CCCC1,-7.76%
7,O=C(c1cc2cc(Br)ccc2oc1=O)N1CCN(c2ccccn2)CC1,-25.4%
8,CCOP(C)(=O)C1(C(=O)OCc2ccccc2)CC1 (stereo not drawn),22%
9,COC(=O)C(C)Sc1nnc(Cc2cc(=O)[nH]c(=O)[nH]2)n1-c1ccc(Cl)cc1 (stereo not drawn),1.64%
10,CC(C)(C)C(=O)NC(Nc1cccc2cccnc12)C(Cl)(Cl)Cl (stereo not drawn),-1.6%
11,CCOC(=O)C1CCN(C(=O)c2cccnc2Oc2ccc(Cl)cc2)CC1,-45.2%
12,COc1cc(OC)cc(C(=O)OCC(=O)Nc2sccc2C(N)=O)c1,10.8%
13,Cc1nc(N)[nH]c(=O)c1CC(=O)OCCCl,-1.14%
14,COc1ccc(C2(c3ccc(OC)cc3)NC(=O)N(CC(=O)Nc3ccc(C(=O)N(C)C)cc3)C2=O)cc1,-3.23%
15,COc1ccc(-c2c(C#N)c(N)nc3c2CCCCCC3)cc1OC,8.69%
16,CSc1nc(NS(=O)(=O)c2cc(Br)ccc2Br)cc(=O)[nH]1,23.3%
17,O=C(COC(=O)C1CCN(S(=O)(=O)c2ccc3c(c2)OCCO3)CC1)NC1CCCCC1,-29.1%
18,Nc1c(Cl)cc(NC(=O)c2ccccc2C(=O)O)cc1Br,-14.8%
19,O=c1[nH][nH]c2nc(C(F)(F)F)cc(C(F)(F)F)c12,-2.36%
20,Cc1csc(SC(C)c2nc3scc(-c4ccccc4)c3c(=O)[nH]2)n1 (stereo not drawn),6.61%
21,CCCCCc1nc2c(c3c1CCCC3)CCCC2,-71.7%
22,CNC(=O)NC(=O)COC(=O)c1ccc(-n2c(C)ccc2C)cc1,-7.41%
23,CCOC(=O)N1CCN(C(=O)C2CCN(S(=O)(=O)c3cc(Cl)ccc3Cl)CC2)CC1,-32.4%

row,Compound,"hERG current change (%, negative = inhibition) at 10uM"
1,CCC(=O)Nc1cc(-c2nn3c(C)nnc3s2)ccc1C,7.79%
2,COc1ccc(C2SCC(=O)N2c2c(C)n(C)n(-c3ccccc3)c2=O)c(OC)c1 (stereo not drawn),3.29%
3,CN(C)S(=O)(=O)c1cccc(NC(=O)c2cc(-c3cccs3)nn2-c2cccc(Cl)c2)c1,11.6%
4,CCOC(=O)COc1ccc(C(=O)Nc2cccc(Cl)c2C)cc1,18.9%
5,CCCn1ncc(C(=O)O)c1C,11.1%
6,COC(=O)C1=C2SC(C)C(=O)N2C(N)=C(C#N)C1c1cc(OC)c(OC)c(OC)c1 (stereo not drawn),-2.42%
7,O=C(c1cc(C2CC2)nn1-c1ccccc1)N1CCN(c2ncc(C(F)(F)F)cc2Cl)CC1,-12.9%
8,CCOc1ccc(CCNC(=O)COC(=O)c2cccc(S(=O)(=O)N3CCCC3)c2)cc1OCC,-12.3%
9,CC(C)Cn1nc(NS(=O)(=O)c2ccccc2)c2cc3ccccc3nc21,6.23%
10,Cc1ccc(NC2c3ncccc3C(=O)N2Cc2ccco2)c(C)c1 (stereo not drawn),-6.03%
11,CC(C)=CCc1c(O)cc2c(=O)c3ccc(O)cc3oc2c1O,-4.26%
12,Cc1sc2c(=O)n3c(nc2c1C(=O)NC1CCCCC1)CCCCC3,6.81%
13,O=C(c1ccccc1O)N1N=C(c2ccccc2)CC1(O)C(F)(F)F (stereo not drawn),-9.34%
14,COc1cccc(NC(=O)CN(C)C(=O)c2cccnc2Sc2ccc(C)c(C)c2)c1,14.3%
15,CCc1cccc(CC)c1NC(=O)CN1CCc2cc(OC)c(OC)cc2C1,17.2%
16,CCC(C)c1ccc(O)c(NC(=O)c2cccnc2)c1 (stereo not drawn),9.34%
17,Fc1cccc(NC(=S)NCc2cccnc2)c1,9.79%
18,COc1ccccc1C(=O)Nc1c(C(=O)N2CCN(C)CC2)oc2ccccc12,-45.2%
19,O=C(c1ccc([N+](=O)[O-])cc1)N1CCN(c2cccc3[nH]ccc23)CC1,-72.7%
20,O=C(c1ccco1)N1CCN=C1SCc1c(F)cccc1Cl,-3.64%
21,Nc1nccnc1C(=O)OCC(=O)Nc1cccc(S(=O)(=O)N2CCCCC2)c1,-34.1%
